The other results are listed elsewhere or left out. The data describe in vitro nicking of single-stranded DNA by Rep domains at 3 µM enzyme and 37 °C for 1 h; the strands have 90 letters, of which the middle is given. Values are log2 of uncut reads against the no-enzyme pool; the lower, the more was cut; hits are not called. Reads are scaled to the total, so uncut sequences can rise above 0 when many others are cut.
Key:
Assay in all cases: uncleaved DNA left, log2 of reads against the no-enzyme library (log2 ratio); higher = less cleavage (more negative = more Rep cleavage of the k-mer); sequences stand for … in CTCGTCCG…ACCGGAGA
[1] = test system: T1, Rep nickase domain of Muscovy duck circovirus
T1 sequence (protein, residues 1-111, tag omitted): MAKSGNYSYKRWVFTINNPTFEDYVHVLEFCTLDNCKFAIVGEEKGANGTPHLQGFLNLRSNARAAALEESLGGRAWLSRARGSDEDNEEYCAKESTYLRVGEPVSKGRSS
Procedure: (§1)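 A pool of 90-nt single-stranded DNAs with seven random bases just before the constant AC of the nick site (name = the seven bases) was cut by 3 µM recombinant His6-SUMO-tagged Rep nickase domain (300 nM DNA, 50 mM HEPES pH 8.0, 50 mM NaCl, 1 mM MnCl2, 1 h, 37 °C, three replicates). Uncut DNA was amplified and sequenced.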

[2] = test system: T2, Rep nickase domain of banana bunchy top virus
T2 sequence (protein, residues 1-94, tag omitted): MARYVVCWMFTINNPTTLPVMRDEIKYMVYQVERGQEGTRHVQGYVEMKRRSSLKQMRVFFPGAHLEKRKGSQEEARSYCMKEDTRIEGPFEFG
Procedure: as §1

[3] = test system: T3, Rep nickase domain of cabbage leaf curl virus
T3 sequence (protein, residues 1-116, tag omitted): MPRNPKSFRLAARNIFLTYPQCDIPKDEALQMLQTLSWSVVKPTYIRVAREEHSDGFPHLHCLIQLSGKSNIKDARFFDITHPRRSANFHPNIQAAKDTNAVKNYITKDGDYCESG
Procedure: as §1

[4] = test system: T4, Rep nickase domain of chickpea chlorotic dwarf virus
T4 sequence (protein, residues 1-124, tag omitted): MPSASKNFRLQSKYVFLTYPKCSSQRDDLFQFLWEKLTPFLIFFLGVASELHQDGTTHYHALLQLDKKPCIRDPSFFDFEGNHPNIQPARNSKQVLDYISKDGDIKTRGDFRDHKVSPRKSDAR
Procedure: as §1

[5] = test system: T5, Rep nickase domain of faba bean necrotic yellows virus
T5 sequence (protein, residues 1-98, tag omitted): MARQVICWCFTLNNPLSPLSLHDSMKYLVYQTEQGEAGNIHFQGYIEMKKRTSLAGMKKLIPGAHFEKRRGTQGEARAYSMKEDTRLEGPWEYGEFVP
Procedure: as §1

[6] = test system: T6, Rep nickase domain of maize striate mosaic virus
T6 sequence (protein, residues 1-117, tag omitted): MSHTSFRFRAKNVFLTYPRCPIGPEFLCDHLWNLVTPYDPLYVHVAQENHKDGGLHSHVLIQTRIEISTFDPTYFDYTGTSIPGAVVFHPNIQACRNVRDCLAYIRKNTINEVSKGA
Procedure: as §1

[7] = test system: T7, Rep nickase domain of porcine circovirus 2
T7 sequence (protein, residues 2-116, tag omitted): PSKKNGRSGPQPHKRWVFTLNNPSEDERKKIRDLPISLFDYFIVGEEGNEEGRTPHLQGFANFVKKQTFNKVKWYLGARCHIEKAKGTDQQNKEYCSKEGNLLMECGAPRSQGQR
Procedure: as §1

[8] = test system: T8, Rep nickase domain of tomato golden mosaic virus
T8 sequence (protein, residues 1-124, tag omitted): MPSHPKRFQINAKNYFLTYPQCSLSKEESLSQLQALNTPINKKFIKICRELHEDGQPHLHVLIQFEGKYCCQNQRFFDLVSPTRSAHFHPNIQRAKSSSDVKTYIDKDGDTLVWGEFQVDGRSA
Procedure: as §1

[9] = test system: T9, Rep nickase domain of tomato yellow leaf curl virus
T9 sequence (protein, residues 1-136, tag omitted): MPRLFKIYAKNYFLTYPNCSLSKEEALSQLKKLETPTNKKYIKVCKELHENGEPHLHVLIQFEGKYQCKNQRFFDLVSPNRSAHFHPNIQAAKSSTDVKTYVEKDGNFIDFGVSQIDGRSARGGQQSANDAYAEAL
Procedure: as §1

[10] = test system: T10, Rep nickase domain of wheat dwarf virus
T10 sequence (protein, residues 1-137, tag omitted): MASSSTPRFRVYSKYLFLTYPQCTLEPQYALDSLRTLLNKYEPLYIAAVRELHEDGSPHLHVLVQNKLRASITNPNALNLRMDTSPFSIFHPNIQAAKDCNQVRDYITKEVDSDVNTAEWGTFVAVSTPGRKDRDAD
Procedure: as §1

Sequence | uncleaved DNA left (log2) [1] | uncleaved DNA left (log2) [2] | uncleaved DNA left (log2) [3] | uncleaved DNA left (log2) [4] | uncleaved DNA left (log2) [5] | uncleaved DNA left (log2) [6] | uncleaved DNA left (log2) [7] | uncleaved DNA left (log2) [8] | uncleaved DNA left (log2) [9] | uncleaved DNA left (log2) [10]
AGGACAC | 0.0962 | 0.194 | 0.902 | 2 | 0.0382 | 2.16 | 0.261 | 0.116 | 0.0981 | 0.207
AGTGGTT | 0.0825 | 0.135 | 0.312 | 0.81 | -0.183 | 1.59 | -2.56 | 0.181 | -0.00938 | 0.0464
GCGCTGC | 0.144 | -0.112 | -0.0526 | 0.58 | 0.0853 | 1.08 | -0.0196 | -0.054 | -0.113 | -0.00266
ATTAAGT | 0.033 | 0.00219 | -0.0537 | -0.558 | -0.019 | -1.08 | -1.18 | -0.0319 | 0.0214 | -0.0419
CACCAGA | -0.143 | -0.139 | -0.389 | -1 | -0.108 | -1.15 | -0.147 | -0.127 | -0.133 | -0.157
ACTAGTA | -0.0945 | -0.0178 | -0.134 | -1.07 | 0.0272 | -0.67 | 0.000988 | 0.0274 | -0.0359 | 0.0464
CACTCCT | -1.16 | -2.52 | -0.885 | -3.08 | -0.184 | -0.421 | -3.31 | -0.254 | -0.142 | -0.192
TGCCATA | -0.0638 | 0.181 | 0.12 | -0.35 | 0.0914 | -0.228 | 0.176 | -0.0255 | 0.305 | 0.189
GCGATAA | 0.0256 | 0.0603 | 0.0796 | 0.49 | -0.0743 | 0.6 | -0.0104 | 0.119 | 0.0094 | 0.136
TCTGCCG | -0.101 | -0.0555 | -0.822 | -0.216 | 0.0131 | -0.916 | 0.0799 | -0.0191 | -0.0856 | -0.0294
AATATAC | 0.0167 | -0.0279 | -0.0549 | -0.944 | 0.00042 | -0.841 | 0.0488 | 0.000593 | -0.0179 | -0.00462
AATGTCA | -0.0595 | -0.111 | -0.208 | -1.53 | -0.0555 | -0.418 | -0.105 | -0.0104 | 0.0124 | -0.0698
CGATGGA | 0.0338 | -0.0493 | -0.0292 | 0.33 | -0.0235 | 0.39 | 0.085 | -0.072 | 0.0172 | -0.114
TCGCTGG | -0.026 | -0.139 | 0.105 | 0.462 | 0.0659 | 0.357 | 0.0566 | 0.0324 | 0.135 | -0.0355
GTGGAGG | 0.0661 | -0.0148 | 0.563 | 1.2 | -0.0186 | 1.47 | 0.156 | 0.141 | 0.0256 | -0.00716
GCTTGGG | -0.165 | 0.0236 | -0.614 | -0.542 | -0.13 | -0.773 | 0.137 | -0.0206 | 0.0769 | -0.127
TACTGCA | -0.644 | -0.0949 | -0.506 | -1.42 | -0.0519 | -0.958 | -2.64 | -0.0184 | 0.118 | -0.149
GGAATCG | 0.0373 | -0.0316 | -0.603 | -0.285 | -0.113 | -0.694 | 0.0952 | -0.00887 | 0.0776 | -0.0224
TGGCGGG | 0.0849 | -0.0976 | -0.169 | -0.0661 | 0.0191 | -0.303 | 0.0832 | -0.136 | -0.141 | -0.197
GTGTGCA | -0.0382 | 0.0514 | 0.203 | 0.659 | -0.124 | 0.924 | 0.0496 | -0.0296 | 0.0958 | 0.019
TTGTCTG | -0.0026 | -0.00878 | -0.124 | 0.0925 | 0.0286 | -0.21 | 0.122 | -0.022 | -0.134 | -0.121
TGCAGGA | 0.152 | 0.0685 | 0.0373 | 0.402 | 0.0735 | -0.195 | 0.0996 | 0.103 | 0.064 | 0.079
CGGATTT | 0.0912 | 0.0639 | 0.249 | -0.172 | -0.144 | 0.993 | -0.116 | -0.106 | 0.00281 | 0.073
CCGATGG | 0.111 | -0.081 | -0.0175 | 0.184 | -0.145 | -0.449 | 0.118 | -0.0252 | -0.144 | 0.0442
GATAATC | 0.138 | 0.142 | 0.284 | 0.657 | 0.0635 | 0.701 | 0.16 | 0.067 | 0.0766 | 0.0948
TGCTTCA | -0.0794 | 0.0397 | 0.0869 | -0.741 | 0.113 | -0.389 | -0.226 | -0.0209 | -0.0742 | -0.0738
CCCGTGG | -0.105 | 0.0459 | 0.0155 | 0.499 | -0.236 | 0.337 | 0.0231 | -0.0487 | -0.0688 | -0.0359
GCTATTT | -0.232 | -0.261 | -0.104 | -1.09 | -0.0988 | 0.0594 | -0.333 | -0.159 | -0.176 | -0.198
TACTATC | -0.177 | -0.115 | -0.555 | -1.67 | -0.101 | -0.595 | -3.06 | -0.0836 | 0.107 | 0.036
AGACCCG | 0.0213 | -0.0271 | 0.882 | 1.81 | 0.0353 | 1.97 | -0.0452 | 0.0662 | -0.0536 | 0.208

— the supplement of paper PMC7826260
